Results as given in the supplement of paper PMC3334620.
In all, about 33,000 sequences were measured (“E-score (-0.5 to 0.5)”: median about -0.035, highest 2% from about 0.35 on). The list shows a part of the results.

target: T1, Pdr3 (UniProt P33200); assay: PBM E-score (8-mer binding enrichment) (E-score (-0.5 to 0.5)); higher = stronger / more preferred TF binding; most listed sequences are background and not binding sites; conditions: protein concentration: 200 nM; construct: GST-full length
T1 sequence: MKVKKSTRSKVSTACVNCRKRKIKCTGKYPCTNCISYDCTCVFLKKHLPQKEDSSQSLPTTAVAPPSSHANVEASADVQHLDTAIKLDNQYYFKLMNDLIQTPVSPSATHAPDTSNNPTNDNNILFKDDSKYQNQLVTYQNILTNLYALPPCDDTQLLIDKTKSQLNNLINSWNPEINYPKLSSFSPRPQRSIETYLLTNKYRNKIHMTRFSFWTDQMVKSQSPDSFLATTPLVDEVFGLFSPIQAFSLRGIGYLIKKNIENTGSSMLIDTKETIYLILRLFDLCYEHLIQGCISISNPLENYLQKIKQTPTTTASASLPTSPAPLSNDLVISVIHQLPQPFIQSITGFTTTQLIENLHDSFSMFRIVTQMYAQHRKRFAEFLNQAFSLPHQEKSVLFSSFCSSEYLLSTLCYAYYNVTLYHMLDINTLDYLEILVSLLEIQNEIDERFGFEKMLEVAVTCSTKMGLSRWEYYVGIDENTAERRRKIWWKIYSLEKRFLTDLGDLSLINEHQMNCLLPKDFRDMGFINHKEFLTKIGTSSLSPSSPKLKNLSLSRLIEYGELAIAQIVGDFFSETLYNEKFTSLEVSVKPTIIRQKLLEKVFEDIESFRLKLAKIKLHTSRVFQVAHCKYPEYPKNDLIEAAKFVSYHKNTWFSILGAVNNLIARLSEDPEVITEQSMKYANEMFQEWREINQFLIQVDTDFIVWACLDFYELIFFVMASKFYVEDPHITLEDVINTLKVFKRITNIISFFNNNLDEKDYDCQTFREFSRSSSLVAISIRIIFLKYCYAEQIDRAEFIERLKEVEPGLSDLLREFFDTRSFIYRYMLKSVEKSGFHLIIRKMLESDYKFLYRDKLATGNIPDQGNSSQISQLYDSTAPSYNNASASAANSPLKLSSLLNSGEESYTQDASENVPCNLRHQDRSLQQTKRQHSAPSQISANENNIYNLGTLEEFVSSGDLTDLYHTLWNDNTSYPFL
In short: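 Universal all-10-mer Agilent arrays, double-stranded by primer extension on fresh or once-stripped slides, were probed with about 100-200 nM GST-tagged yeast transcription factors made by PURExpress. Fluorescent anti-GST detected bound protein, and masliner normalised the scans. E-scores from the Universal PBM Analysis Suite were given to each ungapped eight-base word pooled with its reverse complement.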

| Sequence | PBM E-score |
| --- | --- |
| CAAATAGC | -0.113 |
| CTCCTGTA | 0.0223 |
| ACGACCGC | 0.0577 |
| CTTATAAA | 0.0576 |
| CGCAAACA | 0.0537 |
| AGATTGCG | 0.127 |
| GCGCGCTA | 0.189 |
| GTATCTCA | 0.0414 |
| CACCGTCA | 0.00596 |
| GGTCGAAC | 0.0177 |
| GGTAGTAA | -0.162 |
| AAGGTCGA | 0.0892 |
| TATCCGGA | 0.446 |
| CCACAACG | 0.0187 |
| GCCGTAAA | 0.122 |
| CCGGGGCG | 0.374 |
| CAATCGTG | -0.0238 |
| CATCCACG | 0.0554 |
| GCCATGCA | -0.0425 |
| ATTCTTTA | -0.225 |
| CAGAGCTG | -0.175 |
| AATCAGAC | 0.0599 |
| CTGGGAAA | 0.0259 |
| AGTCATAA | -0.116 |
| GGAGAAAA | 0.0592 |

| Sequence | PBM E-score |
| --- | --- |
| AGATGACA | -0.119 |
| TCATCTAA | 0.0539 |
| CCAAGTGA | -0.0518 |
| ATCGCACC | 0.0138 |
| AAGGTTCC | 0.214 |
| GGCGTACC | 0.115 |
| ATTAGGAG | -0.0566 |
| CCGATAAC | 0.125 |
| ACAGTGAT | -0.099 |
| AATGCGGG | 0.237 |
| ATGGAAGC | 0.179 |
| CAGACATC | 0.0243 |
| GTTTTGAA | -0.161 |
| GGCGGTAA | 0.326 |
| AAACTTAG | -0.216 |
| ATCTGCCC | 0.055 |
| TCGATACA | -0.0894 |
| CATAGATA | -0.0687 |
| TTCGCGAA | 0.164 |
| CGGAAAGC | 0.415 |
| CCTAACAA | -0.19 |
| CATCGCTC | 0.161 |
| CAGGCTGC | -0.251 |
| GTATTAAA | -0.021 |
| GGATCGCA | 0.101 |

| Sequence | PBM E-score |
| --- | --- |
| CCAGGAGA | -0.158 |
| CATGGAGA | 0.0144 |
| CCTGATAA | -0.0871 |
| CCCCTAAA | -0.183 |
| TAACGGTA | 0.0452 |
| TACTTTGA | -0.0901 |
| GGGTCCGA | 0.234 |
| AACCGTCA | -0.081 |
| CTGGCGAC | -0.19 |
| AACCTTCG | 0.0241 |
| CGTCTCTA | -0.136 |
| ATATGCTA | -0.0437 |
| GCAAATAA | 0.0539 |
| AAGTAAAG | -0.0735 |
| TAGGTAGA | -0.131 |
| ATTCCCAG | 0.122 |
| CCTTCAAA | -0.0391 |
| TTGTCAAA | -0.106 |
| GTACTCAC | -0.0194 |
| GCTTCTAC | -0.219 |
| AGCAATGG | -0.0344 |
| GACCAGTC | -0.116 |
| ATGGTGAG | -0.18 |
| AGGACAGA | -0.0364 |
| CCGGTGAC | 0.123 |

| Sequence | PBM E-score |
| --- | --- |
| ACTAGCAC | -0.139 |
| CTCCGATA | 0.266 |
| AGTTGTAA | -0.171 |
| ATTTTATA | 0.257 |
| CCTCCCAA | -0.0444 |
| ACGCTGCT | -0.114 |
| GAACTAGA | 0.0196 |
| GGAGGAGA | -0.0344 |
| CAAATTGC | 0.0819 |
| CTTGAATA | -0.02 |
| GATGACCC | -0.0274 |
| ACTCGAAC | -0.0758 |
| AGACTGCG | -0.129 |
| CCAGCTCC | -0.00677 |
| GAATTGCA | 0.0559 |
| ATACCTAC | -0.076 |
| GCTTGAGA | -0.196 |
| AGTACGGC | 0.133 |
| ATAGTTTA | -0.127 |
| CTAGACGA | -0.231 |
| ACACCGGG | 0.184 |
| AGACTGGG | -0.0821 |
| TATTCTGA | -0.0638 |
| CTATGGAG | -0.306 |
| AAGTTTAC | -0.0671 |

| Sequence | PBM E-score |
| --- | --- |
| GGGTGCAA | 0.179 |
| TAAAGATA | 0.0993 |
| GGGAAAGA | 0.0836 |
| GTCAATGA | -0.24 |
| ACTGAGCT | -0.111 |
| CTGAGATA | -0.0303 |
| AAAGACTT | -0.41 |
| CAAGGCGC | 0.108 |
| AAAATGCG | 0.169 |
| ATCAAGTA | -0.0615 |
| TAGTAAAA | 0.0352 |
| CCATACGA | -0.237 |
| ACAATCTG | -0.0806 |
| AGTATGTA | -0.14 |
| ACACCGGC | 0.179 |
| CGACTGTA | -0.287 |
| TATCCTAA | -0.081 |
| AAGCAGTC | -0.0933 |
| CTTCACTA | -0.181 |
| ACGCTAGA | -0.276 |
| ACCGAGGA | 0.0369 |
| TAGTGCCA | -0.125 |
| ATCATGGC | -0.0314 |
| ACATGTCG | 0.0268 |
| GGCGCTGA | 0.0913 |

| Sequence | PBM E-score |
| --- | --- |
| AGTCGTCC | -0.0586 |
| ACTGCCAC | -0.0951 |
| AAGCATAC | -0.117 |
| GTTTTCAA | 0.079 |
| GGAGCATA | 0.202 |
| CCGCCACG | 0.192 |
| CACCGTTC | 0.0473 |
| ACTTGGTC | 0.163 |
| ACTATGGG | -0.119 |
| CTATCATC | 0.07 |
| ACTGAGGG | -0.243 |
| CGGTCCAA | 0.037 |
| ATAAAGCA | -0.151 |
| ATATCAAG | 0.0811 |
| CATACAGG | -0.141 |
| AGATGTAA | -0.157 |
| CCCCTGAG | -0.208 |
| AATCGTTA | -0.033 |
| TCCACGGA | 0.477 |
| ATATGCCC | -0.0312 |
| AGGAACTA | 0.0717 |
| ATAGGAAG | -0.126 |
| ATGCCAGG | 0.0467 |
| CGTGATCA | -0.0355 |
| CAACGCAA | 0.0707 |

| Sequence | PBM E-score |
| --- | --- |
| GGCGAACA | 0.0443 |
| ACATGGGG | -0.0899 |
| CCCGGCGG | 0.382 |
| CGTCGTCC | 0.0525 |
| GCTAACAC | -0.0326 |
| AAATGAGC | -0.122 |
| ATATCCAC | 0.0606 |
| CGTACCTC | -0.0181 |
| ATTCGGCG | 0.0891 |
| AGGCGTAT | -0.154 |
| GGGTATGA | 0.0218 |
| CCAAAAGA | -0.151 |
| AGGCGAGC | -0.1 |
| CACCGACG | 0.00596 |
| GTTAGCAA | -0.147 |
| CCCATAAG | -0.00269 |
| ACCCTAGG | -0.219 |
| AGCCTCCT | -0.225 |
| AATGGCTA | -0.082 |
| TGGACCAA | 0.0375 |
| ATAGACAC | -0.099 |
| CCAACCGG | 0.205 |
